From publication PMC4336329 (PLoS ONE, 2015)
The campaign covered roughly 310,000 compounds. About 14,000 (4.5%) showed an effect of 50% or more. The effect is printed as a negative number. This is one part of the list.

The compounds below were run against human ether-à-go-go-related gene (hERG) potassium channel (human, UniProt Q12809) (assay: primary screen, population patch clamp on CHO cells stably expressing hERG).
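Further: peak tail current of the secondary pulse compared with the same well before compound.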

Sequence of human ether-à-go-go-related gene (hERG) potassium channel (Q12809 whole entry, looked up): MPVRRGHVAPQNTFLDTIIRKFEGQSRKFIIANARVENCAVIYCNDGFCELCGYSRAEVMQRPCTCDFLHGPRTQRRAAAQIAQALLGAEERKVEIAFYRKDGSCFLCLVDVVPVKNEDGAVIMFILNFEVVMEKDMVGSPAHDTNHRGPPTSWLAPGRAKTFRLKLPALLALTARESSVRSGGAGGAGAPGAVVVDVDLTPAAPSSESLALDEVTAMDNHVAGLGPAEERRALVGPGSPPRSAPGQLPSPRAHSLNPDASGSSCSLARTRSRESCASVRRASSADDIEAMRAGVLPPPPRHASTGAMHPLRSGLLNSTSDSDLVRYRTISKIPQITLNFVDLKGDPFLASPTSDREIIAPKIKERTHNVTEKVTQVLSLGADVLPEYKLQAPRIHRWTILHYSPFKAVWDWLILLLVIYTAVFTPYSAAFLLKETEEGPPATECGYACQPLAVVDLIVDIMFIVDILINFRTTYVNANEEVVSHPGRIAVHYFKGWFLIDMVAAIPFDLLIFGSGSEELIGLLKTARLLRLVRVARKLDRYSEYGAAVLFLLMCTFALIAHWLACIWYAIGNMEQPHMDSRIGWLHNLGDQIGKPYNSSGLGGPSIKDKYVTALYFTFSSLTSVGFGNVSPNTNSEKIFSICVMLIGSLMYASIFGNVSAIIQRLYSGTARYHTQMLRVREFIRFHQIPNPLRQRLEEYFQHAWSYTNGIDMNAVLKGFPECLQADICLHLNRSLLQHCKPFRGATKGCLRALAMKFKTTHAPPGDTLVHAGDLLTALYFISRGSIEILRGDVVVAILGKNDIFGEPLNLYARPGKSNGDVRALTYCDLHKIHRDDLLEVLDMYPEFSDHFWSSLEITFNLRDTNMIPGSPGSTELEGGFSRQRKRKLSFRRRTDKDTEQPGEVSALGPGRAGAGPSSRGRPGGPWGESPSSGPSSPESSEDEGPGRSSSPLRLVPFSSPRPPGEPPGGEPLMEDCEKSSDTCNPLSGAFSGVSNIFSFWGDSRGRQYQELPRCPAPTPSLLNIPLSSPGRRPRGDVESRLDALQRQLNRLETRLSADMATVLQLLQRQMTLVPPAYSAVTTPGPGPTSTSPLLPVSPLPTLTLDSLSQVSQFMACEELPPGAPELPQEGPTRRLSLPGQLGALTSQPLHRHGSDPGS

Compound	hERG current change (%, negative = inhibition) at 10uM
O=C(CSc1nnc(-c2ccncc2)n1-c1ccc(Cl)cc1)Nc1ccc(C(=O)O)cc1	16.3%
O=C(CN(Cc1ccco1)C(=O)CCC(=O)Nc1nccs1)NCc1ccccc1	-3.83%
c1ccc2c3c(cc(N4CCOCC4)c2c1)OC1(N2CCOCC2)CCCCC1O3 (stereo not drawn)	-4.18%
COc1cccc(NC(=O)COC(=O)COc2cccc3c2OC(C)(C)C3)c1	-35.8%
Cc1cc(C)c2sc(N(CCN(C)C)C(=O)c3ccc4ccccc4c3)nc2c1.Cl	7.53%
C/C(=N\NC(=O)c1ccc2c(c1)OCO2)c1cccnc1	15.2%
O=C(NCCSc1ccccc1)c1ccccc1	6.11%
O=C1NC(=O)N(Cc2ccco2)C(=O)/C1=C/c1ccc(-c2cccc([N+](=O)[O-])c2)o1	-7.69%
CCOC(=O)C1(Cc2ccc(OC)cc2)CCN(C(=O)c2sc(C)nc2C)CC1	1.86%
COc1ccc(Cl)cc1N1C(=O)c2cccnc2C1=O	18.6%
CCOc1ccc(C(=O)c2ccncc2)cc1	9.82%
CC1CC(C(=O)Nc2ccccc2)C(=O)O1 (stereo not drawn)	17.8%
O=c1nc(-c2ccccc2)cn[nH]1	-0.662%
COc1ccc(CC(=O)N(CCC2=CCCCC2)c2c(N)n(Cc3ccccc3)c(=O)[nH]c2=O)cc1OC	-29%
CC1=C(C(=O)OCc2ccccc2)C(c2cccc3ccccc23)NC(=O)N1CCCC(=O)O (stereo not drawn)	20.8%
COc1ccc(CCNC(=O)CCN2C(=O)[C@@H]3Cc4ccccc4CN3C2=O)cc1OC	3.08%
CCOCCCNC(=O)C(NC(=O)CC1NC(=O)NC1=O)c1ccc(Cl)cc1 (stereo not drawn)	8.3%
CCCn1c(CCNC(=O)c2cccs2)nc2ccccc21	-36.1%
O=C(NCc1cccs1)c1cccn2c(=O)c3sccc3nc12	-7.79%

Compound	hERG current change (%, negative = inhibition) at 10uM
Cc1cc(C)n2nc(C(=O)NCc3ccccc3)nc2n1	-1.29%
COc1cc(C)ccc1OCc1cc(C(=O)NCCN2CCCC(O)C2)no1 (stereo not drawn)	-6.69%
O=C(Cc1coc2cc3c(cc12)CCC3)OCc1cc(=O)n2c(n1)sc1ccccc12	4.53%
CCCCN(Cc1nc2ccccc2c(=O)[nH]1)C(=O)CN1C(=O)NC2(CCCCC2)C1=O	-41.9%
CC1=C(C(=O)Nc2ccccc2C)C2(CCCCC2)C(C(N)=O)C(=S)N1 (stereo not drawn)	-6.7%
Cc1[nH]nc2c1C(c1ccc(Cl)cc1)C(C#N)=C(N)O2 (stereo not drawn)	5.06%
CCOC(=O)c1c(C)[nH]c(C(=O)OC(C)C(=O)Nc2ccccc2OC)c1C (stereo not drawn)	2.57%
N#Cc1c(NC(=O)c2cc(C3CC3)on2)sc2c1CCC2	13.8%
CCC1CCCCN1CCCNC(=O)CN1C(=O)c2cccnc2Oc2ccc(Cl)cc21 (stereo not drawn)	-3.74%
CC(=O)N1CCc2ccc(S(=O)(=O)Nc3ccccc3Cl)cc21	-3.03%
Cn1c(NC(=O)c2cccc(Cn3cc(Cl)cn3)c2)nc2ccccc21	6.57%
Cc1cc(C)nc(N/N=C/C2=C(O)CC(c3ccc(F)cc3)CC2=O)n1 (stereo not drawn)	-13.7%
CC(CC(=O)O)CC(=O)Nc1ccc(Br)cc1 (stereo not drawn)	16.9%
C=CCOc1ccccc1CNCCNC(=O)c1nonc1N.Cl	-22.8%
OC1(CN2CCOCC2)C2CN3CCN(C2)CC1(c1ccccc1)C3 (stereo not drawn)	-0.418%
CCCOc1ccccc1/C=N/Nc1ccnc(=O)[nH]1	17%
COc1ccccc1/C=C/C(=O)NCCc1ccccn1	21.6%
CC(=O)NC1(C(F)(F)F)C(=O)Nc2c1c(=O)[nH]c(=O)n2CC(C)C (stereo not drawn)	19.8%
Cc1cccn2c(=O)c3cc(C(=O)N4CCC5(CC4)OCCO5)n(C)c3nc12	-16.7%

Compound	hERG current change (%, negative = inhibition) at 10uM
Cc1ccc(C(=O)O)cc1-n1c(=O)n(Cc2ccccc2)c(=O)c2[nH]cnc21	15%
O=C(CNC(=O)c1ccc(Cl)cc1)NCC(F)(F)F	4.13%
FC(F)(F)c1nnc2sc(-c3cccs3)nn12	-7.24%
O=C(c1ccco1)N1CCN(Cc2nc3ccc([N+](=O)[O-])cc3c(=O)n2-c2ccccc2F)CC1	-68.3%
CCNC(=O)NC(=O)CSc1nc2ccccc2n1CC(C)C	-4.02%
O=C(NCc1ccc2c(c1)OCO2)C1CCC(=O)N1C1CCCCC1 (stereo not drawn)	-9.26%
CCOc1ccc2[nH]c(=O)c(=O)[nH]c2c1	-17.2%
CCCn1nc(Oc2nc(SC)nc(N(C)C)n2)ccc1=O	-17.7%
CN(C)S(=O)(=O)c1cccc(C(=O)Nc2cc3c(cc2C(=O)O)OCCCO3)c1	23.4%
Cc1ccc(C(=O)COC(=O)c2c(C)cc(=O)oc2C)cc1[N+](=O)[O-]	-27.3%
C=CCNC(=O)c1onc(CSc2cccc(OC)c2)c1C(=O)NCC=C	6.65%
O=C(O)CCN1C(=O)C2C3CC(C2C1=O)C1C(c2ccccc2)c2sc(=O)[nH]c2SC31 (stereo not drawn)	13%
CC(=O)Nc1ccccc1NS(=O)(=O)c1ccc(Cl)cc1	-2.08%
COc1cc(NC(=O)CSc2nccc(C)n2)c(C)cc1[N+](=O)[O-]	-8.03%
COc1cccc(-c2ccnc3[nH]n(-c4ccccc4)c(=O)c23)c1	18.5%
Cc1ccc(CNC(=O)c2nnc(CS(=O)(=O)c3ccccc3)o2)cc1	-16.4%
CN(C)CCCn1c(-c2ccccc2)nc(=S)c2c1CCCC2	12.2%
O=C(NCCOC(=O)c1ccc(F)cc1)c1ccc(F)cc1	-8.02%
COc1cc(C(=O)NNC(=O)CSc2nnc3ccccn23)cc(OC)c1OC	15.4%
